Measurements as given in publication PMC4336329 (PLoS ONE, 2015).
In all, about 310,000 compounds went through this assay and about 2,200 (0.71%) showed an effect of 50% or more. The effect is printed as a negative number. The list shows a part of the results.

The molecules below were run against human ether-à-go-go-related gene (hERG) potassium channel (human, UniProt Q12809) (assay: primary screen, population patch clamp on CHO cells stably expressing hERG).
Sequence of human ether-à-go-go-related gene (hERG) potassium channel (Q12809 whole entry, looked up): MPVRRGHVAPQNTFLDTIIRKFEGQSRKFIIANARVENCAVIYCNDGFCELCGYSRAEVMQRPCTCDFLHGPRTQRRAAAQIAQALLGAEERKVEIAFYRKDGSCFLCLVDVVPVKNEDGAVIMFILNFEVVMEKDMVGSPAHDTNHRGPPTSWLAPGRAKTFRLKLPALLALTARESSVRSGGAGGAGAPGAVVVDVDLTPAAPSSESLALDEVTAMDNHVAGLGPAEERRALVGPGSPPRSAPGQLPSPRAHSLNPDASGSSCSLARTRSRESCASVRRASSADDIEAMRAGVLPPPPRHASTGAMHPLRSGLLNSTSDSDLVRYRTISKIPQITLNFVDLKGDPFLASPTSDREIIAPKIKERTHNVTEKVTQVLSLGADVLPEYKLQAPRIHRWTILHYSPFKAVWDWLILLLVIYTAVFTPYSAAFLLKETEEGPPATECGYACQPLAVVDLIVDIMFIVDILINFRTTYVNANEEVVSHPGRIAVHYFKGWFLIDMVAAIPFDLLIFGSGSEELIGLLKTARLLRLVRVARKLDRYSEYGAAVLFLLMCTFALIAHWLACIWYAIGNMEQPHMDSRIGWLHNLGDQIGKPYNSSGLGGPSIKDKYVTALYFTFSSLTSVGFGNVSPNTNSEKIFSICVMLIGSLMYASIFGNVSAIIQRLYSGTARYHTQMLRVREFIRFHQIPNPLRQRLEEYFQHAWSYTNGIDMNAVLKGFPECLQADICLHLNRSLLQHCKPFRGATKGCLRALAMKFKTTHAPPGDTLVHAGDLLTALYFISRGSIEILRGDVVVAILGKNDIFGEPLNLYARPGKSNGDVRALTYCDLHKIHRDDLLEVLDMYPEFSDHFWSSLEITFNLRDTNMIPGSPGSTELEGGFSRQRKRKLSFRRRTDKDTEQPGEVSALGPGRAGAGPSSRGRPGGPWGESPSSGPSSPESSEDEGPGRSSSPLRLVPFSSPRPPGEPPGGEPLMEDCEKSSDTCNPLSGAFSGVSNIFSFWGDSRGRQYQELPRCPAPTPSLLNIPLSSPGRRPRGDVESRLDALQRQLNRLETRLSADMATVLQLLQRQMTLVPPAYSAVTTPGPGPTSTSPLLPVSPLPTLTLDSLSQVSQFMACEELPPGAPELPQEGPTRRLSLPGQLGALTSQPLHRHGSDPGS

Going from COCCN(CC1CCCN(C2Cc3ccccc3C2)C1)C(=O)CCSC (centres unmarked) to Cc1cccc(NC(=O)N2CCCC(CNC(=O)c3ccccc3Cl)C2)c1C (centres unmarked), the “hERG current change (%, negative = inhibition) at 1uM” value rises from -4.27% to 20.7%.

Compared with O=C1N=C(N2CCOCC2)S/C1=C\C=C/c1ccccc1, Cl.O=C(CCS(=O)(=O)c1ccccc1)N(CCCN1CCOCC1)c1nc2ccc(F)cc2s1 is higher in “hERG current change (%, negative = inhibition) at 1uM” value: -30% for the first, -2.41% for the second.

Going from CCOc1ccc(Nc2ccc(S(=O)(=O)N3CCN(C)CC3)cc2[N+](=O)[O-])cc1OCC to Cc1c(C(=O)N2CCOCC2)c(S(=O)(=O)Nc2cccc(F)c2)c(C)n1C, the “hERG current change (%, negative = inhibition) at 1uM” value falls from 8.31% to -2.45%.

First: CC1(C)CC(=O)NC=C(c2ccccc2)C1
Second: O=C(O)CN1C(=O)SC(Nc2ccccc2)C1=O (centres unmarked)
The “hERG current change (%, negative = inhibition) at 1uM” value of the first is lower: -4.42% for the first, 1.66% for the second.

Going from Cc1ccc(CSc2nccc(-c3c(C)nc4ccccn34)n2)cc1 to O=C(CSc1ccc(-c2ccccn2)nn1)NCc1ccc(F)cc1, the “hERG current change (%, negative = inhibition) at 1uM” value falls from 12.6% to 9.07%.

First: Cc1cccc(-n2c(SCC(N)=O)nc3c(c2=O)C2(CCCC2)Cc2ccccc2-3)c1
Second: O=C(CSc1nnc(-c2ccc(Br)cc2)n1CCc1ccccc1)NC1CCS(=O)(=O)C1 (centres unmarked)
The “hERG current change (%, negative = inhibition) at 1uM” value of the first is higher: -0.531% for the first, -60.7% for the second.

First: COCCCNC(=S)N/N=C/c1ccc(O)cc1O
Second: Cc1cc(C)nc(N/N=C/c2ccccc2OCC(=O)O)n1
The “hERG current change (%, negative = inhibition) at 1uM” value of the first is lower: 4.31% for the first, 13.9% for the second.

First: O=C(CCCOc1ccccc1)Nc1nncs1
Second: Cc1ccc(OCC(=O)NNC(=O)CCc2ccccc2)cc1
The “hERG current change (%, negative = inhibition) at 1uM” value of the first is lower: -1.99% for the first, 3.57% for the second.

Compared with Cn1c(=NC(=O)C2CC2)sc2cccc(F)c21, N#Cc1nc(-c2ccco2)oc1N1CCC(C(N)=O)CC1 is lower in “hERG current change (%, negative = inhibition) at 1uM” value: 1.19% for the first, -0.374% for the second.

First: CCOC(=O)c1ccc2c(c1)[nH]c(=S)n2CC
Second: CCCSc1nnc(-c2c[nH]c3ccccc23)n1CC
The “hERG current change (%, negative = inhibition) at 1uM” value of the first is higher: 12.3% for the first, 3.09% for the second.

Compared with O=C(NCc1ccccc1)C1CCN(C(=O)NCc2ccccc2)CC1, O=C(NCc1ccc(Cl)cc1)c1cc(=O)nc2sc(-c3ccccc3)nn12 is lower in “hERG current change (%, negative = inhibition) at 1uM” value: 18.8% for the first, -10.3% for the second.

First: CCOC(=O)c1sc(NC(=O)CN2C(=O)c3cccc4cccc(c34)C2=O)nc1C
Second: Cc1cc(/C=C2\SC(=O)N(CC(=O)Nc3ccccc3F)C2=O)c(C)n1C
The “hERG current change (%, negative = inhibition) at 1uM” value of the first is higher: 11.6% for the first, 10.5% for the second.

First: O=C(COC(=O)c1nc(Cl)ccc1Cl)c1ccc(Cl)s1
Second: COc1ccc2oc(C(=O)OC(C)C(=O)NCc3ccccc3)c(C)c2c1 (centres unmarked)
The “hERG current change (%, negative = inhibition) at 1uM” value of the first is lower: 11.9% for the first, 12.1% for the second.

Going from O=C1c2ccccc2N2C(=O)c3ccccc3C2N1Cc1ccco1 (centres unmarked) to COC(=O)N1c2ccccc2C=Cc2ccccc21, the “hERG current change (%, negative = inhibition) at 1uM” value rises from 8.1% to 12.3%.

First: CCn1ncc(Br)c1C(=O)Nc1cc([N+](=O)[O-])ccc1C
Second: COc1ccc2nc(SCC(=O)Nc3ccccc3C)[nH]c2c1
The “hERG current change (%, negative = inhibition) at 1uM” value of the first is higher: 9.28% for the first, 3.24% for the second.

Compared with O=C(O)c1ccc(NC(CSCc2ccccc2F)C(=O)O)c([N+](=O)[O-])c1 (centres unmarked), COc1cc(Br)cc(CNc2ccc(F)c([N+](=O)[O-])c2)c1O is higher in “hERG current change (%, negative = inhibition) at 1uM” value: 8.88% for the first, 11.3% for the second.

First: Fc1ccc(Nc2nnns2)cc1
Second: CCOc1ccccc1Oc1ccc(C(F)(F)F)cn1
The “hERG current change (%, negative = inhibition) at 1uM” value of the first is lower: 15.5% for the first, 16% for the second.

Compared with O=[N+]([O-])c1cccc(-c2nnc(-c3ccc4c(c3)OCO4)o2)c1, COc1ccc(-c2cc(-c3ccco3)[nH]c(=O)c2C#N)cc1OC is higher in “hERG current change (%, negative = inhibition) at 1uM” value: 8.07% for the first, 13.5% for the second.

Compared with Cc1ccccc1OCCC(=O)OCC(=O)N(C)c1c(N)n(Cc2ccccc2)c(=O)[nH]c1=O, CCOc1ccc(NC(=O)Cn2nnc(-c3ccccc3NC(=O)CC)n2)cc1 is lower in “hERG current change (%, negative = inhibition) at 1uM” value: 8.86% for the first, 5.05% for the second.

First: CCCN(CCC)CCCNC(=O)c1cc2cc3ccc(OC)cc3nc2o1
Second: COc1ccc(N(CC(=O)Nc2cc(OC)ccc2OC)S(C)(=O)=O)cc1
The “hERG current change (%, negative = inhibition) at 1uM” value of the first is lower: -6.32% for the first, 10.5% for the second.

First: O=C(NCCC1=CCCCC1)C(=O)NCc1ccncc1
Second: Cc1ccc(C2=NS(=O)(=O)N(C)C(C(=O)N3CCCCC3)=C2)cc1
The “hERG current change (%, negative = inhibition) at 1uM” value of the first is higher: 9.59% for the first, 2.24% for the second.

Going from COCCSc1nnc(NC(=O)Cc2cccs2)s1 to O=c1[nH]c(C2CCN(S(=O)(=O)c3ccc4c(c3)OCCO4)CC2)nc2c1nnn2Cc1c(F)cccc1Cl, the “hERG current change (%, negative = inhibition) at 1uM” value falls from 14.8% to 13.5%.
